Data from patent publication US12435061B2 (priority 2020, dated 2025).

What was measured:
[1] = Stock and working solution stability test (bioanalytical validation); conditions: at +4° C
[2] = mouse, in vivo, po
[3] = test system: cultured human keratinocytes (nHEK cells); assay: Protein markers of differentiation (involucrin, filaggrin Western Blot) in cultured human keratinocytes; conditions: 100 nM, 250 nM and 500 nM KM-001, 24 h, 1.2 mM Ca+2 differentiated nHEK
Gottingen minipigs = assay: 7-day preliminary dermal tolerance/toxicity study in minipigs; conditions: KM-001 Ointment 0.1, 0.3, 1% w/w
pigs = assay: Topical pharmacokinetics and skin irritation of KM-001 in pigs (3 days repeated dosing); conditions: topical KM-001 ointment 0.3% and 1.0%

O=C(c1ccc(F)cn1)N1CCC(c2ccc(-c3ccccc3C3CC3)cc2CO)C1 (centres unmarked) [KM-001]
stability of stock and working solutions [1]: up to 54 days
KM-001 detection (matrix not given; skin samples were also collected) [2]: undetectable
filaggrin protein expression (Western Blot) [3]: decrease in the expression
involucrin protein expression (Western Blot) [3]: decrease in the expression
Macroscopic observations (gross pathology) (Gottingen minipigs; twice daily dermal, 7 days, minipigs): No systemic or local treatment-related changes were noted
Terminal body weight and organ weights (Gottingen minipigs; twice daily dermal, 7 days, minipigs, vs controls): No relevant changes were observed in terminal body weight and organ weights
Microscopic observations of treated skin (Gottingen minipigs; vs untreated site and placebo controls): did not show any treatment-related changes
abnormal clinical signs (pigs): No abnormal clinical signs were observed
